The whole screen tested about 310,000 compounds, of which about 2,200 (0.71%) showed an effect of 50% or more. The effect is printed as a negative number. Some of the results follow.

The test deals with human ether-à-go-go-related gene (hERG) potassium channel (human, UniProt Q12809). The test is described as follows: primary screen, population patch clamp on CHO cells stably expressing hERG.
Chain of human ether-à-go-go-related gene (hERG) potassium channel (Q12809 whole entry, looked up): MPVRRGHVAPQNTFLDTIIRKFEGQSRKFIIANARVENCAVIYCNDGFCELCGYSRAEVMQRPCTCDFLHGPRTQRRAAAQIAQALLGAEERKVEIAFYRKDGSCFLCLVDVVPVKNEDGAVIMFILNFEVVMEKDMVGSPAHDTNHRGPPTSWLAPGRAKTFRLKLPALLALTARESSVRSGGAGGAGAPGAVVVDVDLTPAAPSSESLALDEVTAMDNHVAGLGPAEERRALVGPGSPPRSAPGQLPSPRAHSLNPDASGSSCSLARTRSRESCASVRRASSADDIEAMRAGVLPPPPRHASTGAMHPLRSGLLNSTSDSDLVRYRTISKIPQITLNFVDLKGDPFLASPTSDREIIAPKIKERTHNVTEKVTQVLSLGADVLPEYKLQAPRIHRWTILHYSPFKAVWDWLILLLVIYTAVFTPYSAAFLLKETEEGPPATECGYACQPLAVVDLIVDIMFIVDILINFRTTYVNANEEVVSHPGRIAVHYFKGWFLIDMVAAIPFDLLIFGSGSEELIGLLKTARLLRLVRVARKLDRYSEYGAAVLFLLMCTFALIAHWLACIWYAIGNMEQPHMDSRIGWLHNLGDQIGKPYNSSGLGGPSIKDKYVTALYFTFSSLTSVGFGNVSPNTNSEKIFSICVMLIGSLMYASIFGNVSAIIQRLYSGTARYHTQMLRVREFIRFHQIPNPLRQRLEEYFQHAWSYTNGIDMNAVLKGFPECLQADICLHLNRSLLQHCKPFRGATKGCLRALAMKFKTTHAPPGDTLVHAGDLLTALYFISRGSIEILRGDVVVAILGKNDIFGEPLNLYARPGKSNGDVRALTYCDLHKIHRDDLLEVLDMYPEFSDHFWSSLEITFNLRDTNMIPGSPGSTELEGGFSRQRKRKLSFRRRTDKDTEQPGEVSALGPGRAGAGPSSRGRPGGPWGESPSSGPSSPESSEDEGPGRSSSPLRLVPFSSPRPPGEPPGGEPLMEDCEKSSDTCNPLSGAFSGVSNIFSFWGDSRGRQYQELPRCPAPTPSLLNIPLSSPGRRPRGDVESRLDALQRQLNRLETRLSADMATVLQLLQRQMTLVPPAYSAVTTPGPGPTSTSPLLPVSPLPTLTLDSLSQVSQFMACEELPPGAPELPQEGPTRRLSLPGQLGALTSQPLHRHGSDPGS
As to `N#CCCn1cc(/C=C2\NC(=S)N(c3ccccc3)C2=O)c(-c2ccc(F)cc2)n1`, the “hERG current change (%, negative = inhibition) at 1uM” value came out at 11.2%. The same measure for `Cc1ccc(S(=O)(=O)NNC(=O)C(=O)NNS(=O)(=O)c2ccc(C)cc2)cc1`: 4.61%; for `COc1ccccc1-c1ccc2nnc(SC)n2n1`: 14.8%; for `Cc1ccc(SCCC(=O)OCC(=O)Nc2ccc(S(N)(=O)=O)cc2)cc1`: 16%.

For `CC1(C)CC(=O)N(c2ccc(Cl)c(Cl)c2)C(=O)C1`, the “hERG current change (%, negative = inhibition) at 1uM” value is 4.25%. The same measure for `CC(=O)Nc1cccc(NC(=O)c2c(-c3ccccc3Cl)noc2C)c1`: 3.96%; for `COc1ccc(NC(=O)C(=O)NCC(c2ccco2)N2CCc3ccccc32)cc1` (stereo not drawn): 8.78%. The result for `Cc1nc2nc(C)c(NS(=O)(=O)c3ccc(C(C)(C)C)cc3)c(=O)n2[nH]1` reads 10.8%. Consider `CC1(C)Cc2nc3sc4c(=O)n(CC(=O)NCc5ccccc5)cnc4c3cc2CO1`, for which the “hERG current change (%, negative = inhibition) at 1uM” value stood at 3.82%. For `CC1CCCCN1C(=O)COC(=O)c1ccc(=O)n(Cc2ccccc2)n1` (stereo not drawn), the “hERG current change (%, negative = inhibition) at 1uM” value is 3%. `O=C1CN=C(c2ccccc2)c2ccccc2N1`: the “hERG current change (%, negative = inhibition) at 1uM” value came to 12%.

In the case of `COc1ccc(C(=O)NCc2nnc(SC)n2C2CCCCC2)cc1`, the “hERG current change (%, negative = inhibition) at 1uM” value is 9.35%. As for `COc1ccccc1N1CCN(C(=O)c2ccc3nc(-c4ccco4)c(-c4ccco4)nc3c2)CC1`, the “hERG current change (%, negative = inhibition) at 1uM” value was 7.79%. The result for `CSc1cccc(NC(=S)N(CCCN2CCCC2)Cc2cccs2)c1` reads -17.9%. The result for `N#Cc1ccc(/C=C/C(=O)c2ccco2)cc1` reads 5.85%.

Regarding `O=C1CC2(CCN(C(=O)C(=O)c3c[nH]c4ccccc34)CC2)Oc2ccccc21`, the “hERG current change (%, negative = inhibition) at 1uM” value is recorded as -0.76%. The result for `CCCCc1ccc(N=N/C(C(=O)Nc2ccc(NC(C)=O)cc2OC)=C(/C)O)cc1` reads 8.33%; that for `CCOC(=O)Cc1csc(NC(=O)c2cccc(N3C(=O)CCC3=O)c2)n1`, 5.7%.

`COc1ccc(-c2nc(SCC(=O)N(CC(C)C)c3c(N)n(Cc4ccccc4)c(=O)[nH]c3=O)n[nH]2)cc1`: the “hERG current change (%, negative = inhibition) at 1uM” value was 1.09%. The result for `CCCC/C=C/C(NC(=O)CCc1ccccc1)c1ccccc1` (stereo not drawn) reads 1.65%; that for `C=CCc1cc(Cl)ccc1OCCCn1ccnc1.O=C(O)C(=O)O`, 7.27%. The result for `COC(=O)COc1ccc(/C=N/NS(=O)(=O)c2ccccc2)cc1` reads 15%; that for `Cc1ccc(SCCCCN2CCNCC2)cc1.O=C(O)C(=O)O`, 1.74%. The result for `N#C/C(=C\c1ccncc1)c1nc2ccccc2o1` reads 11.2%.

(Values after PMC4336329 (PLoS ONE, 2015).)
